In the supplement of paper PMC8728848:
This is one part of the list.

Columns and labels:
Assay in all cases: glycan array binding signal (z-score within array); higher = stronger binding
Conditions in all cases: glycan notation: IUPAC condensed, linker removed
[1] = target: Fuc(a1-2)[GalNAc(a1-3)]Gal(b1-4)GlcNAc(b1-6)GalNAc
In short: (§1)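 From the Consortium for Functional Glycomics database, 3228 arrays were curated, keeping only those whose protein sequence was available. Binding is given as a within-array Z-score averaged across arrays sharing a protein sequence and across linkers. Negative Z-scores can be read as non-binding.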

[2] = target: Fuc(a1-2)[GalNAc(a1-3)]Gal(b1-4)[Fuc(a1-3)]GlcNAc
In short: as §1

[3] = target: Fuc(a1-2)[GalNAc(a1-3)]Gal(b1-4)[Fuc(a1-3)]GlcNAc(b1-3)GalNAc
In short: as §1

[4] = target: Fuc(a1-2)[GalNAc(a1-4)]Gal(b1-4)GlcNAc
In short: as §1

[5] = target: Fuc(a1-2)[GalNAc(b1-3)]Gal
In short: as §1

Fuc(a1-3)GlcNAc = target: Fuc(a1-3)GlcNAc
In short: as §1

[6] = target: Fuc(a1-3)[Gal(b1-4)]Glc6S
In short: as §1

[7] = target: Fuc(a1-3)[Gal(b1-4)]GlcNAc
In short: as §1

[8] = target: Fuc(a1-3)[Gal(b1-4)]GlcNAc(b1-2)Man
In short: as §1

[9] = target: Fuc(a1-3)[Gal(b1-4)]GlcNAc(b1-2)Man(a1-3)[Fuc(a1-3)[Gal(b1-4)]GlcNAc(b1-2)Man(a1-6)]Man(b1-4)GlcNAc(b1-4)GlcNAc
In short: as §1

[10] = target: Fuc(a1-3)[Gal(b1-4)]GlcNAc(b1-2)Man(a1-3)[Fuc(a1-3)[Gal(b1-4)]GlcNAc(b1-2)Man(a1-6)]Man(b1-4)GlcNAc(b1-4)[Fuc(a1-6)]GlcNAc
In short: as §1

[11] = target: Fuc(a1-3)[Gal(b1-4)]GlcNAc(b1-3)Gal(b1-3)[Fuc(a1-4)]GlcNAc
In short: as §1

[12] = target: Fuc(a1-3)[Gal(b1-4)]GlcNAc(b1-3)Gal(b1-4)[Fuc(a1-3)]GlcNAc
In short: as §1

[13] = target: Fuc(a1-3)[Gal(b1-4)]GlcNAc(b1-3)Gal(b1-4)[Fuc(a1-3)]GlcNAc(b1-3)Gal(b1-4)[Fuc(a1-3)]GlcNAc
In short: as §1

[14] = target: Fuc(a1-3)[Gal(b1-4)]GlcNAc(b1-3)GalNAc
In short: as §1

[15] = target: Fuc(a1-3)[Gal(b1-4)]GlcNAc(b1-4)Gal(b1-4)[Fuc(a1-3)]GlcNAc
In short: as §1

[16] = target: Fuc(a1-3)[Gal(b1-4)]GlcNAc(b1-4)Gal(b1-4)[Fuc(a1-3)]GlcNAc(b1-4)Gal(b1-4)[Fuc(a1-3)]GlcNAc
In short: as §1

[17] = target: Fuc(a1-3)[Gal(b1-4)]GlcNAc(b1-6)GalNAc
In short: as §1

[18] = target: Fuc(a1-3)[Gal(b1-4)]GlcNAc(b1-6)[Gal(b1-3)GlcNAc(b1-3)]Gal(b1-4)Glc
In short: as §1

[19] = target: Fuc(a1-3)[Gal(b1-4)]GlcNAc(b1-6)[Neu5Ac(a2-3)Gal(b1-3)]GalNAc
In short: as §1

[20] = target: Fuc(a1-3)[Gal(b1-4)]GlcNAc6S
In short: as §1

[21] = target: Fuc(a1-3)[Gal3S(b1-4)]Glc
In short: as §1

[22] = target: Fuc(a1-3)[Gal3S(b1-4)]GlcNAc
In short: as §1

[23] = target: Fuc(a1-3)[Gal3S(b1-4)]GlcNAc6S
In short: as §1

[24] = target: Fuc(a1-3)[GalNAc(b1-4)]GlcNAc
In short: as §1

[25] = target: Fuc(a1-3)[GalNAc(b1-4)]GlcNAc6S
In short: as §1

Fuc(a1-4)GlcNAc = target: Fuc(a1-4)GlcNAc
In short: as §1

Fuc(b1-3)GlcNAc = target: Fuc(b1-3)GlcNAc
In short: as §1

Gal(a1-2)Gal = target: Gal(a1-2)Gal
In short: as §1

Gal(a1-3)Gal = target: Gal(a1-3)Gal
In short: as §1

B1: Siglec-F (Mus musculus), Q920G3 (protein)
chain: MRWAWLLPLLWAGCLATDGYSLSVTGSVTVQEGLCVFVACQVQYPNSKGPVFGYWFREGANIFSGSPVATNDPQRSVLKEAQGRFYLMGKENSHNCSLDIRDAQKIDTGTYFFRLDGSVKYSFQKSMLSVLVIALTEVPNIQVTSTLVSGNSTKLLCSVPWACEQGTPPIFSWMSSALTSLGHRTTLSSELNLTPRPQDNGTNLTCQVNLPGTGVTVERTQQLSVIYAPQKMTIRVSWGDDTGTKVLQSGASLQIQEGESLSLVCMADSNPPAVLSWERPTQKPFQLSTPAELQLPRAELEDQGKYICQAQNSQGAQTASVSLSIRSLLQLLGPSCSFEGQGLHCSCSSRAWPAPSLRWRLGEGVLEGNSSNGSFTVKSSSAGQWANSSLILSMEFSSNHRLSCEAWSDNRVQRATILLVSGPKVSQAGKSETSRGTVLGAIWGAGLMALLAVCLCLIFFTVKVLRKKSALKVAATKGNHLAKNPASTINSASITSSNIALGYPIQGHLNEPGSQTQKEQPPLATVPDTQKDEPELHYASLSFQGPMPPKPQNTEAMKSVYTEIKIHKC
glycan array binding signal (z-score) [1]: -0.165
glycan array binding signal (z-score) [2]: -0.058
glycan array binding signal (z-score) [3]: -0.018
glycan array binding signal (z-score) [4]: 0.045
glycan array binding signal (z-score) [5]: -0.038
glycan array binding signal (z-score) (Fuc(a1-3)GlcNAc): -0.129
glycan array binding signal (z-score) [6]: -0.08
glycan array binding signal (z-score) [7]: -0.117
glycan array binding signal (z-score) [8]: -0.137
glycan array binding signal (z-score) [9]: 0.004
glycan array binding signal (z-score) [10]: -0.093
glycan array binding signal (z-score) [11]: -0.123
glycan array binding signal (z-score) [12]: -0.096
glycan array binding signal (z-score) [13]: -0.115
glycan array binding signal (z-score) [14]: 0.006
glycan array binding signal (z-score) [15]: -0.061
glycan array binding signal (z-score) [16]: -0.121
glycan array binding signal (z-score) [17]: -0.109
glycan array binding signal (z-score) [18]: -0.102
glycan array binding signal (z-score) [19]: -0.088
glycan array binding signal (z-score) [20]: 0.026
glycan array binding signal (z-score) [21]: -0.146
glycan array binding signal (z-score) [22]: -0.127
glycan array binding signal (z-score) [23]: -0.114
glycan array binding signal (z-score) [24]: -0.106
glycan array binding signal (z-score) [25]: -0.152
glycan array binding signal (z-score) (Fuc(a1-4)GlcNAc): -0.106
glycan array binding signal (z-score) (Fuc(b1-3)GlcNAc): -0.128
glycan array binding signal (z-score) (Gal(a1-2)Gal): -0.117
glycan array binding signal (z-score) (Gal(a1-3)Gal): -0.121
